# Screen size: about 350,000 compounds; about 9,900 (2.8%) were called active. Inconclusive results, whose numbers are uncertain, are shown with a selection of clear calls. The call rests on the fitted dose curve; in most records, active means well fitted activation curve with a large enough effect; inconclusive means small, poorly fitted or top-dose-only effect; inactive means no such curve, though single readings can be large or run the other way. No potency is given beside an inconclusive call; the fits are too rough.
# Experiment: A quantitative high throughput screen for small molecules that induce DNA re-replication in MCF 10a normal breast cells. Further: nearly all actives have a fitted effect of over 50% in size. On activity, positive = re-replication: % of control where 0% means no effect.
# Conditions: MCF 10A DNA re-replication, Hoechst nuclear intensity, 48 h; activity, positive = re-replication: at 46.1 µM (top of the series)
# Potency means the concentration at half of the fitted maximal effect; tags describe the fitted curve by direction and shape.
SMILES,Potency,"activity, positive = re-replication"
COc1ccc(C(=O)N2N=C(c3cccc(OC)c3)CC2(O)C(F)(F)F)cc1 (configuration not stated),"inconclusive [activator, single point]",–
COc1ccc(/C=N/NC(=O)c2cccnc2)cc1CSc1ccccn1,active: 13 µM,–
C/C(=N\N=C1/NC(=O)C(C)S1)c1ccc([N+](=O)[O-])cc1 (configuration not stated),"inconclusive [activator, full curve, poor fit]",–
CCOc1cccc(NC(=O)/C(C#N)=C\c2cn(CC(=O)O)c3ccccc23)c1,"inconclusive [activator, single point]",–
COc1cccc(-c2sc3ccc(OC)cc3c2-c2ccc(OCCN3CCOCC3)cc2)c1,"inconclusive [activator, partial curve, poor fit]",–
CCCOc1ccccc1C1CC(=O)Nc2cc3c(cc21)OCO3 (configuration not stated),active: 6.51 µM,–
Cn1nccc1NS(=O)(=O)c1ccc(C(C)(C)C)cc1,–,inactive: 8.42%
Cc1ccccc1OCCNC(=O)c1ccc2ccccc2n1,"inconclusive [activator, partial curve, poor fit]",–
O=C(CCC(NC(=O)OCc1ccccc1)C(=O)OCc1ccccc1)NCC(=O)OCc1ccccc1 (configuration not stated),"inconclusive [activator, partial curve, poor fit]",–
CN(C)c1ccc(/C=C2\CCC/C(=C\c3ccccc3)C2=O)cc1,active: 18.4 µM,–
Cc1ccc(N(CCC#N)C(=O)CSc2nc3ccccc3c(=O)[nH]2)cc1,–,inactive: -3.36%
COc1ccc(/C=C/C(=O)c2ccc3c(c2)OCCO3)cc1[N+](=O)[O-],active: 3.66 µM,–
CC1CCCN(C(=O)CSCC(=O)N=c2sc3ccccc3n2C)C1 (configuration not stated),"inconclusive [activator, partial curve, poor fit]",–
c1ccc(CNCCCNCCCCNCCCNCc2ccccc2)cc1,active: 6.51 µM,–
Cc1ccc(S(=O)(=O)Cc2ccc(C(=O)N3CCN(c4cccc(C)c4C)CC3)o2)cc1,"inconclusive [activator, partial curve, poor fit]",–
CN(C)P(=NC(=O)COc1ccc(Cl)cc1Cl)(N(C)C)N(C)C,–,inactive: -0.0983%
Cc1ccc(C(NC(=O)Nc2ccccn2)C(Cl)(Cl)Cl)cc1F (configuration not stated),–,inactive: 15.8%
CCN(C(=O)COc1ncnc2scc(-c3ccc(F)cc3)c12)C1CCS(=O)(=O)C1 (configuration not stated),"inconclusive [activator, partial curve, poor fit]",–
O=C(COC(=O)Cc1ccc(F)cc1)NC(=O)NC1CCCC1,"inconclusive [activator, partial curve, poor fit]",–
CCc1c(C)sc(NC(=O)c2noc(C)c2[N+](=O)[O-])c1C#N,"inconclusive [activator, single point]",–
Cc1sc2ncnc(SCC(=O)N3CCOCC3)c2c1C,–,inactive: 8.42%
Cc1nn(-c2ccccc2)c(C)c1NC(=O)COc1ccc(C#N)cc1,"inconclusive [activator, single point]",–
CC1CCCCN1Cc1c(O)ccc2c(=O)c(-c3ccc(Br)cc3)coc12 (configuration not stated),"inconclusive [activator, partial curve, poor fit]",–

SMILES,Potency,"activity, positive = re-replication"
CC(C)CCC(O)(c1ccccc1)C(CN1CCOCC1)c1ccccc1 (configuration not stated),"inconclusive [activator, single point]",–
CCOC(=O)CC1(NC(=O)c2cc(COc3c(F)cccc3F)on2)CCCCC1,–,inactive: -2.55%
O=C(COc1ccccc1-c1ccccc1)NCc1ccco1,"inconclusive [activator, partial curve, poor fit]",–
N/C(=N\c1nc(CSc2ccc(Cl)cc2)cc(=O)[nH]1)Nc1ccccc1C(F)(F)F,"inconclusive [activator, single point]",–
CC(/C=C/c1ccc(O)cc1)=NNc1ccccc1,active: 23.1 µM,–
Cc1nc2ccccc2c(=O)n1NC(=O)c1c(O)c2c(n(CC(C)C)c1=O)CCCC2,"inconclusive [activator, partial curve, poor fit]",–
Cc1ccc(S(=O)(=O)c2nc(S(=O)(=O)c3ccccc3)sc2N2CCN(CCO)CC2)cc1,–,inactive: 17%
CCOc1ccccc1OCCNC1CCCC1,"inconclusive [activator, single point]",–
Cc1ccc(C(=O)N2CCCC(c3ccc(Cl)cc3)=N2)cc1,active: 18.4 µM,–
CN1CCN(C2Cc3ccc(Cl)cc3Sc3ccc(F)cc32)CC1 (configuration not stated),"inconclusive [activator, partial curve, poor fit]",–
O=C(CSc1nc2ncc(Cl)cc2[nH]1)c1c[nH]c2ccccc12,active: 23.1 µM,–
Cc1c(NC(=O)C(C)OC(=O)COc2ccccc2)c(=O)n(-c2ccccc2)n1C (configuration not stated),–,inactive: -1.4%
CC(C)NS(=O)(=O)c1ccc(NC(=S)NC(=O)c2ccc(-c3ccccc3)cc2)cc1,"inconclusive [activator, partial curve, poor fit]",–
CCn1c(COc2ccc(=O)n(-c3ccccc3)n2)nnc1SCc1cccc(OC)c1,–,inactive: -0.0749%
CN(C)C/C=C/C(=O)Nc1cccc(-c2c[nH]c3ncnc(Oc4ccc(NC(=O)CC(=O)Nc5ccc(F)cc5)cc4F)c23)c1,"inconclusive [activator, single point]",–
Fc1ccc(CN2CCN(C(=S)NCCc3ccccc3)CC2)c(Cl)c1,–,inactive: 23%
Cc1ccc(CCC(=O)Nc2ccc(CC(=O)O)cc2)o1,"inconclusive [activator, partial curve, poor fit]",–
O=c1nc(/C=C/c2cc([N+](=O)[O-])ccc2Cl)cc(C(F)(F)F)[nH]1,active: 3.26 µM,–
Cc1ccc(C)c(OCC(=O)N(Cc2ccccc2)c2c(N)n(Cc3ccccc3)c(=O)[nH]c2=O)c1,–,inactive: -6.13%
CCOC(=O)C1CCCN(C(=O)Cn2ncc3c([nH]c4ccccc43)c2=O)C1 (configuration not stated),"inconclusive [activator, single point]",–
CCOc1ccc(NC(=O)CSc2n[nH]c(N)n2)c([N+](=O)[O-])c1,–,inactive: 2.57%
CCOc1ccc(-c2nc(CSCC(=O)NC3CCCc4ccccc43)c(C)o2)cc1 (configuration not stated),"inconclusive [activator, single point]",–
CSCCC(NC(=O)COc1ccccc1)C(=O)N1CCN(c2ccccc2F)CC1 (configuration not stated),–,inactive: -5.48%

SMILES,Potency,"activity, positive = re-replication"
Cc1ccc(SCC2(O)CCN(S(=O)(=O)c3ccc(Cl)cc3)CC2)cc1,"inconclusive [activator, single point]",–
CC(=O)c1c(-c2ccccc2)[nH]c2ccccc12,active: 16.4 µM,–
O=[N+]([O-])c1ccc(/C=C/c2ccc3cccc([N+](=O)[O-])c3n2)cc1,"inconclusive [activator, single point]",–
CCCCCCCNC(=O)C1(CC2CC(c3cccc(Br)c3)=NO2)CCNCC1 (configuration not stated),"inconclusive [activator, single point]",–
COc1cc(C(=O)N2CCCN(c3nc4cc(C)ccc4cc3C#N)CC2)cc(OC)c1OC,"inconclusive [activator, full curve, poor fit]",–
CCC1=C(CC2NCCc3ccccc32)CC2c3cc(OC)c(OC)cc3CCN2C1 (configuration not stated),–,inconclusive: 44.9% [activator]
COc1ccc(N2C(=O)C3C(C2=O)C3(c2ccccc2)c2ccccc2)cc1 (configuration not stated),–,inactive: 11.7%
CCn1cc(C(=O)N2CCN(c3ccc(OC)cc3)CC2)c(=O)c2cc(S(=O)(=O)N3CCCCC3)ccc21,"inconclusive [activator, full curve, poor fit]",–
O=C(COc1ccc(S(=O)(=O)NC2CCCCC2)cc1)N1CCN(c2cccc(Cl)c2)CC1,"inconclusive [activator, partial curve]",–
Cc1ccc(C(c2nnnn2CCc2ccccc2)N2CCC(C)CC2)cc1 (configuration not stated),"inconclusive [activator, single point]",–
CC(C)C(=O)N1CCN(c2ccc(NC(=O)c3ccc([N+](=O)[O-])o3)cc2Cl)CC1,"inconclusive [activator, partial curve, poor fit]",–
Cc1cc(C)cc(N=Cc2[nH]c3ccc(Br)c(Cl)c3c2O)c1,"inconclusive [activator, single point]",–
Cc1cc(SCC(=O)Nc2cccc(S(=O)(=O)NC3=NCCCCC3)c2)c(C)cc1Br,"inconclusive [activator, partial curve]",–
CC(NC(=O)CN(C)S(=O)(=O)c1cnc[nH]1)c1ccccc1 (configuration not stated),"inconclusive [activator, full curve, poor fit]",–
Cc1nc(N)sc1-c1csc(Nc2ncccn2)n1,"inconclusive [activator, partial curve, poor fit]",–
Cc1ccc(NC(=O)Cn2nc(C)c([N+](=O)[O-])c2C)cc1C,–,inactive: -26.9%
COc1ccc(S(=O)(=O)Nc2nc3ccccc3nc2NCc2ccc3c(c2)OCO3)cc1,"inconclusive [activator, single point]",–
COc1cc2[nH]c(=O)n(CCC(=O)N3CCN(c4cc(Cl)ccc4C)CC3)c(=O)c2cc1OC,"inconclusive [activator, single point]",–
O=C1CC(c2ccsc2)c2ccc3ccccc3c2N1 (configuration not stated),"inconclusive [activator, single point]",–
CC1(c2ccccc2)NC(=O)N(CC(=O)Nc2nnc(C3CC3)s2)C1=O (configuration not stated),–,inactive: -2.11%
COC(=O)c1ccc(COc2ccc(/C=C(\C#N)c3nc4ccccc4[nH]3)cc2OC)o1,"inconclusive [activator, partial curve]",–

# Source: PubChem BioAssay AID624296 (National Center for Advancing Translational Sciences (NCATS), 2012)
